# Results: the supplement of paper PMC8728848
# This is one part of the list.
# How the values were obtained:
# Experiment in all cases: glycan array binding signal (z-score within array); higher = stronger binding
# Conditions in all cases: glycan notation: IUPAC condensed, linker removed
# Gal(b1-3)GlcNAc6S = molecular target: Gal(b1-3)GlcNAc6S
# Outline: (§1)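 Negative Z-scores can be read as non-binding. The Z-score is calculated within each array and then averaged across arrays of one protein sequence at different concentrations or buffers and across linkers. Arrays, 3228 in all, were curated from the Consortium for Functional Glycomics database and kept only where the protein sequence was available.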
# [1] = molecular target: Gal(b1-3)[Fuc(a1-4)]GlcNAc
# Outline: as §1
# [2] = molecular target: Gal(b1-3)[Fuc(a1-4)]GlcNAc(b1-2)Man(a1-3)[Gal(b1-3)[Fuc(a1-4)]GlcNAc(b1-2)Man(a1-6)]Man(b1-4)GlcNAc(b1-4)GlcNAc
# Outline: as §1
# [3] = molecular target: Gal(b1-3)[Fuc(a1-4)]GlcNAc(b1-2)Man(a1-3)[Gal(b1-3)[Fuc(a1-4)]GlcNAc(b1-2)Man(a1-6)]Man(b1-4)GlcNAc(b1-4)[Fuc(a1-6)]GlcNAc
# Outline: as §1
# [4] = molecular target: Gal(b1-3)[Fuc(a1-4)]GlcNAc(b1-3)Gal(b1-3)[Fuc(a1-4)]GlcNAc
# Outline: as §1
# [5] = molecular target: Gal(b1-3)[Fuc(a1-4)]GlcNAc(b1-3)Gal(b1-4)GlcNAc
# Outline: as §1
# [6] = molecular target: Gal(b1-3)[Fuc(a1-4)]GlcNAc(b1-3)Gal(b1-4)[Fuc(a1-3)]GlcNAc
# Outline: as §1
# [7] = molecular target: Gal(b1-3)[Fuc(a1-4)]GlcNAc(b1-6)GalNAc
# Outline: as §1
# [8] = molecular target: Gal(b1-3)[GlcNAc(b1-6)]GalNAc
# Outline: as §1
# [9] = molecular target: Gal(b1-3)[Neu5Ac(a2-6)]GalNAc
# Outline: as §1
# [10] = molecular target: Gal(b1-3)[Neu5Ac(a2-6)]GlcNAc(b1-6)Gal(b1-4)Glc
# Outline: as §1
# [11] = molecular target: Gal(b1-3)[Neu5Ac(b2-6)]GalNAc
# Outline: as §1
# Gal(b1-4)Gal = molecular target: Gal(b1-4)Gal
# Outline: as §1
# [12] = molecular target: Gal(b1-4)GalNAc(a1-3)[Fuc(a1-2)]Gal(b1-4)GlcNAc
# Outline: as §1
# [13] = molecular target: Gal(b1-4)GalNAc(b1-3)[Fuc(a1-2)]Gal(b1-4)GlcNAc
# Outline: as §1
# Gal(b1-4)Glc = molecular target: Gal(b1-4)Glc
# Outline: as §1
# Gal(b1-4)Glc6S = molecular target: Gal(b1-4)Glc6S
# Outline: as §1
# Gal(b1-4)GlcNAc = molecular target: Gal(b1-4)GlcNAc
# Outline: as §1
# [14] = molecular target: Gal(b1-4)GlcNAc(a1-6)Gal(b1-4)GlcNAc
# Outline: as §1
# Gal(b1-4)GlcNAc(b1-2)Man = molecular target: Gal(b1-4)GlcNAc(b1-2)Man
# Outline: as §1
# [15] = molecular target: Gal(b1-4)GlcNAc(b1-2)Man(a1-3)Man(b1-4)GlcNAc(b1-4)GlcNAc
# Outline: as §1
# [16] = molecular target: Gal(b1-4)GlcNAc(b1-2)Man(a1-3)[Gal(b1-4)GlcNAc(b1-2)Man(a1-6)]Man(b1-4)GlcNAc(b1-4)GlcNAc
# Outline: as §1
# [17] = molecular target: Gal(b1-4)GlcNAc(b1-2)Man(a1-3)[Gal(b1-4)GlcNAc(b1-2)Man(a1-6)]Man(b1-4)GlcNAc(b1-4)[Fuc(a1-6)]GlcNAc
# Outline: as §1
# [18] = molecular target: Gal(b1-4)GlcNAc(b1-2)Man(a1-3)[Gal(b1-4)GlcNAc(b1-2)][GlcNAc(b1-4)]Man(b1-4)GlcNAc(b1-4)GlcNAc
# Outline: as §1
# [19] = molecular target: Gal(b1-4)GlcNAc(b1-2)Man(a1-3)[GlcNAc(b1-2)Man(a1-6)]Man(b1-4)GlcNAc(b1-4)GlcNAc
# Outline: as §1
# [20] = molecular target: Gal(b1-4)GlcNAc(b1-2)Man(a1-3)[Man(a1-6)]Man(b1-4)GlcNAc(b1-4)GlcNAc
# Outline: as §1
# [21] = molecular target: Gal(b1-4)GlcNAc(b1-2)Man(a1-6)Man(b1-4)GlcNAc(b1-4)GlcNAc
# Outline: as §1
# [22] = molecular target: Gal(b1-4)GlcNAc(b1-2)Man(a1-6)[GlcNAc(b1-2)Man(a1-3)]Man(b1-4)GlcNAc(b1-4)GlcNAc
# Outline: as §1
# [23] = molecular target: Gal(b1-4)GlcNAc(b1-2)Man(a1-6)[Man(a1-3)]Man(b1-4)GlcNAc(b1-4)GlcNAc
# Outline: as §1
# [24] = molecular target: Gal(b1-4)GlcNAc(b1-2)[Gal(b1-4)GlcNAc(b1-4)]Man(a1-3)[Gal(b1-4)GlcNAc(b1-2)Man(a1-6)]Man(b1-4)GlcNAc(b1-4)GlcNAc
# Outline: as §1
# [25] = molecular target: Gal(b1-4)GlcNAc(b1-2)[Gal(b1-4)GlcNAc(b1-4)]Man(a1-3)[Gal(b1-4)GlcNAc(b1-2)[Gal(b1-4)GlcNAc(b1-6)]Man(a1-6)]Man(b1-4)GlcNAc(b1-4)GlcNAc
# Outline: as §1
# [26] = molecular target: Gal(b1-4)GlcNAc(b1-2)[Gal(b1-4)GlcNAc(b1-4)]Man(a1-3)[GlcNAc(b1-4)][Gal(b1-4)GlcNAc(b1-2)Man(a1-6)]Man(b1-4)GlcNAc(b1-4)GlcNAc
# Outline: as §1
# [27] = molecular target: Gal(b1-4)GlcNAc(b1-2)[Gal(b1-4)GlcNAc(b1-4)]Man(a1-3)[GlcNAc(b1-4)][Gal(b1-4)GlcNAc(b1-2)[Gal(b1-4)GlcNAc(b1-6)]Man(a1-6)]Man(b1-4)GlcNAc(b1-4)GlcNAc
# Outline: as §1
# [28] = molecular target: Gal(b1-4)GlcNAc(b1-2)[Gal(b1-4)GlcNAc(b1-4)]Man(a1-3)[GlcNAc(b1-4)][Gal(b1-4)GlcNAc(b1-2)[Gal(b1-4)GlcNAc(b1-6)]Man(a1-6)]Man(b1-4)GlcNAc(b1-4)[Fuc(a1-6)]GlcNAc
# Outline: as §1
# [29] = molecular target: Gal(b1-4)GlcNAc(b1-2)[Gal(b1-4)GlcNAc(b1-6)]Man(a1-6)[Gal(b1-4)GlcNAc(b1-2)Man(a1-3)]Man(b1-4)GlcNAc(b1-4)GlcNAc
# Outline: as §1
# [30] = molecular target: Gal(b1-4)GlcNAc(b1-2)[Gal(b1-4)GlcNAc(b1-6)]Man(a1-6)[Gal(b1-4)GlcNAc(b1-2)Man(a1-3)]Man(b1-4)GlcNAc(b1-4)[Fuc(a1-6)]GlcNAc
# Outline: as §1
# [31] = molecular target: Gal(b1-4)GlcNAc(b1-2)[Gal(b1-4)GlcNAc(b1-6)]Man(a1-6)[GlcNAc(b1-4)][Gal(b1-4)GlcNAc(b1-2)Man(a1-3)]Man(b1-4)GlcNAc(b1-4)GlcNAc
# Outline: as §1
# [32] = molecular target: Gal(b1-4)GlcNAc(b1-3)Gal(b1-3)GlcNAc
# Outline: as §1
# [33] = molecular target: Gal(b1-4)GlcNAc(b1-3)Gal(b1-4)Glc
# Outline: as §1
# [34] = molecular target: Gal(b1-4)GlcNAc(b1-3)Gal(b1-4)GlcNAc
# Outline: as §1
# [35] = molecular target: Gal(b1-4)GlcNAc(b1-3)Gal(b1-4)GlcNAc(b1-3)Gal(b1-4)GlcNAc
# Outline: as §1
# [36] = molecular target: Gal(b1-4)GlcNAc(b1-3)Gal(b1-4)[Fuc(a1-3)GlcNAc(b1-6)]Gal(b1-4)Glc
# Outline: as §1
# [37] = molecular target: Gal(b1-4)GlcNAc(b1-3)Gal(b1-4)[Fuc(a1-3)]GlcNAc(b1-3)Gal(b1-4)[Fuc(a1-3)]GlcNAc
# Outline: as §1
# [38] = molecular target: Gal(b1-4)GlcNAc(b1-3)GalNAc
# Outline: as §1
# [39] = molecular target: Gal(b1-4)GlcNAc(b1-3)[Gal(b1-4)GlcNAc(b1-6)]Gal(b1-4)GlcNAc
# Outline: as §1
binder,measurement,setting,value
"RVL (Remusatia vivipara), B5LYJ9 (protein) MAKLLLFLLPAILGLLVPRSAVALGTNYLLSGQTLDTEGHLKNGDFDLVMQDDCNLVLYNGNWQSNTANNGRDCKLTLTDYGELVIKNGDGSTVWKSGAQSVKGNYAAVVHPDGRLVVLGPSVFKIDPWVRGLNSLRFRNIPFTNNLLFSGQVLYGDGRLTAKNHQLVMQGDCNLVLYGGKYGWQSNTHGNGEHCFLRLNHKGELIIKDDDFKTIWSSRSSSKQGEYVLILQDDGFGVIYGPAIFETSSKRSIAAS",glycan array binding signal (z-score),Gal(b1-3)GlcNAc6S,-0.087
same,glycan array binding signal (z-score),[1],-0.07
same,glycan array binding signal (z-score),[2],-0.239
same,glycan array binding signal (z-score),[3],0.116
same,glycan array binding signal (z-score),[4],0.194
same,glycan array binding signal (z-score),[5],-0.293
same,glycan array binding signal (z-score),[6],-0.138
same,glycan array binding signal (z-score),[7],-0.148
same,glycan array binding signal (z-score),[8],-0.124
same,glycan array binding signal (z-score),[9],0.005
same,glycan array binding signal (z-score),[10],-0.214
same,glycan array binding signal (z-score),[11],-0.313
same,glycan array binding signal (z-score),Gal(b1-4)Gal,-0.187
same,glycan array binding signal (z-score),[12],-0.217
same,glycan array binding signal (z-score),[13],-0.146
same,glycan array binding signal (z-score),Gal(b1-4)Glc,-0.167
same,glycan array binding signal (z-score),Gal(b1-4)Glc6S,-0.182
same,glycan array binding signal (z-score),Gal(b1-4)GlcNAc,-0.182
same,glycan array binding signal (z-score),[14],-0.142
same,glycan array binding signal (z-score),Gal(b1-4)GlcNAc(b1-2)Man,-0.045
same,glycan array binding signal (z-score),[15],-0.155
same,glycan array binding signal (z-score),[16],0.527
same,glycan array binding signal (z-score),[17],7.05
same,glycan array binding signal (z-score),[18],-0.136
same,glycan array binding signal (z-score),[19],1.11
same,glycan array binding signal (z-score),[20],0.744
same,glycan array binding signal (z-score),[21],-0.136
same,glycan array binding signal (z-score),[22],0.007
same,glycan array binding signal (z-score),[23],1.16
same,glycan array binding signal (z-score),[24],0.974
same,glycan array binding signal (z-score),[25],0.596
same,glycan array binding signal (z-score),[26],-0.157
same,glycan array binding signal (z-score),[27],0.112
same,glycan array binding signal (z-score),[28],0.097
same,glycan array binding signal (z-score),[29],0.497
same,glycan array binding signal (z-score),[30],0.127
same,glycan array binding signal (z-score),[31],-0.158
same,glycan array binding signal (z-score),[32],-0.061
same,glycan array binding signal (z-score),[33],-0.252
same,glycan array binding signal (z-score),[34],-0.29
same,glycan array binding signal (z-score),[35],-0.018
same,glycan array binding signal (z-score),[36],-0.111
same,glycan array binding signal (z-score),[37],-0.213
same,glycan array binding signal (z-score),[38],-0.139
same,glycan array binding signal (z-score),[39],-0.161
